Measured values reported in patent US20250002588A1 (DIAGONAL THERAPEUTICS, published 2025).

Target: ALK-1/BMPR-2 receptor pair of the PathHunter U2Os dimerization cells (DiscoverX 93-0962C3) (UniProt P37023 22-503; Q13873 27-1038)
Experiment: cell-based or functional assay

Sequence of UniProt P37023 (P37023 22-503, chain 1 of 2): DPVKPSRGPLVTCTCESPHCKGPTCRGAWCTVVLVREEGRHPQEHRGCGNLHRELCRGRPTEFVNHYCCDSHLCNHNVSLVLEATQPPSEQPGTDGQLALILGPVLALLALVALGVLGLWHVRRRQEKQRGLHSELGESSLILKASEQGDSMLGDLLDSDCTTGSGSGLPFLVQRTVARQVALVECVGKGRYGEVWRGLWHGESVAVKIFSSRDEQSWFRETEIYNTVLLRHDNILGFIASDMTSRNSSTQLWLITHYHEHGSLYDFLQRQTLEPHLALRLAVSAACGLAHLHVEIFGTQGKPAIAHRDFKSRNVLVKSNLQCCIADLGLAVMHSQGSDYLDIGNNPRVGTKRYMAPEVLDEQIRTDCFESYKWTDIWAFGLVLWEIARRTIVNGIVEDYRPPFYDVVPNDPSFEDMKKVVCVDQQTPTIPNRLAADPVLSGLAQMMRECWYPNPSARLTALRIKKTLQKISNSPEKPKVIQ
Sequence of UniProt P37023 (Q13873 27-1038, chain 2 of 2, further chain): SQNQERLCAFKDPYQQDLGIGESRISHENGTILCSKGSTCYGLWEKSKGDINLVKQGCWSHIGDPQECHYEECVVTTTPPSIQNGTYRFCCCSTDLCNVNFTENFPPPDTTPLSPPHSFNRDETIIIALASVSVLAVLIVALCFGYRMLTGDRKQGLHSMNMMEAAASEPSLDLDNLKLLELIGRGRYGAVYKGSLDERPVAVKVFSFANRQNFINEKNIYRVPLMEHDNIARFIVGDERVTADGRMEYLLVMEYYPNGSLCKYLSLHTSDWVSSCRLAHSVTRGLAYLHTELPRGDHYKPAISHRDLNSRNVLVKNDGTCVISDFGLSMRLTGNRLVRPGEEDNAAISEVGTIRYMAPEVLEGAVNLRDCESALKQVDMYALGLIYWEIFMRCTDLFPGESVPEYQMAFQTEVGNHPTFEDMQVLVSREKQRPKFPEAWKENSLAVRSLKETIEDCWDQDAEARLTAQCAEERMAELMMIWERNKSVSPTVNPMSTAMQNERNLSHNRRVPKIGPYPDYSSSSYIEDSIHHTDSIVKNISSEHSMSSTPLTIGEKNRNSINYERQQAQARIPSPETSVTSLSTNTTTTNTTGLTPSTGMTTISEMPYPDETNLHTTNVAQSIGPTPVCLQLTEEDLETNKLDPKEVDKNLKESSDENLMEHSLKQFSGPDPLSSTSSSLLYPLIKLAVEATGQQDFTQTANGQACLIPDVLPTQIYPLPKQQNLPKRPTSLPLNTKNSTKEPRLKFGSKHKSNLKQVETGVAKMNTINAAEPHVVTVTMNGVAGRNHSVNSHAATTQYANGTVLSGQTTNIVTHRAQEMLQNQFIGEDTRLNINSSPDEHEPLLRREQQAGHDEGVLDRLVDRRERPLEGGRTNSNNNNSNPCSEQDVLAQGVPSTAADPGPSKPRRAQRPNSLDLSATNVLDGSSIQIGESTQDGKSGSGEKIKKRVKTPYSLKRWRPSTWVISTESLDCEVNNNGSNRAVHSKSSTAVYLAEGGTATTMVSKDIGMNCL

% Emax BMP9: 49%
EC50: 1 nM
EMAX (RLU): 1.3e+06 RLU
B1: DGL284 (bispecific antibody)
chain: [about 120 residues omitted here]EGKSSGSGSESKASQVQLQESGPGLVKPSQTLSLTCTVSGGSISSDDYYWSWIRQTPGKGLEWIGYIYYSGITYYNPSLKSRVTISVDTSKNQFSLKLSSVTAADTAVYYCAREGCNDGVCYNGVFDYWGQGTLVTVSSSGGSGGGGSSGGGGSGGGGSSGGGGDGGGGSGGTQSALTQPASVSGSPGQSITISCTGTSSDVGGYKSVSWYQQHPGKAPKLMIYDVSNRPSGVSDRFSGSKSGNTASLTISGLQAEDEADYYCSSYTSSSSLWVFGGGTKLTVLGEGKSSGSGSESKASQVQLVQSGAEVKKPGSSVKVSCKASGGTFSSYAISWVRQAPGQGLEWMGRIIPILGIANYAQKFQGRVTMTEDTSTDTAYMELSSLRSEDTAVYYCATDLWGVGADWGQGTLVTVSSGSGGGGDGGGGSG[human IgG1 Fc omitted here]
